The source gives no read counts; variants with many changes may rest on few reads.
B1: LINE1-mini (parent)
chain: GGCAGAGCUCAACACAGCGUGGCAAAGUGGCUGUGGCUAGACUGCC

Variants of: B1
Assay: self-cleavage, relative activity (ratio to wild type); higher = more cleavage; in vitro, sequencing; the parent is a self-cleaving ribozyme

Variant	self-cleavage
GGCCGAGCUCUACACAGCGUGGCAAAGUGGCUGGGGUUAGACUCCC	0.01
GGCCGAGCUCACCGCAGGGUGGCAGAGUGGCUAAGGCUAGACUGCC	0.1
GGCCGAGCUCACCAAAACGUGGCAAAGUGGCUGUGGCUACACUGUC	0.03
GGCCGAGCUCAGCACUGCGUGGGAAAGUGGCUGUGUCUAGACCGCC	0.01
GGCCGAGCUCAGCACAGCGUGGCAAAGUGGAUGUGGCUCCACUGCC	0.02
GGCCGAGCUCAGCACAGCGUGGCAAAGUGGGUGUGGCUUGACUGCC	0.19
GGCCGAGCUCAGCACAGCGUGGCAAAGUGGCUUUGGCUAGACUGUC	0.29
GGCCGAGCUCAGCACAGCGUGGCAAAGGGUCUCUGGCUAGACUGCC	0.01
GGCCGAGCUCAUCACAGCGUGGCAAAGUUGCUGUGGCUCGACUGCC	0.03
GGCCGAGCUCAUCACAGCGUGGCAAAGUGGCUCUGGCUAGACUGCC	0.08
GGCCGAGCUCAUCACAGCGUGGCAAAGUGGCUGUAGCUAGACUGCC	0.05
GGCCGAGCUCAUCACAGCGUGGCAAAGCGGCUGUGGCUAGACUGCC	0.09
GGCCGAGCUCAUCACAGCGUGGCAAAGGGGCUUCGGCUAGACCGCC	0
GGCCGAGCUCAACCGAGCGCGGCAAAGUGGCUGUCGCUACACUGCC	0
GGCCGAGCUCAACCCAGCAUGUCAAAGUGGCUGUGGCUAGACUGCC	0
GGCCGAGCUCAACUCAGCGUGACAAAAUGGCUGUGGCUAGCCUGCC	0.01
GGCCGAGCUCAACACCGUGUGGCAAAGUGGCUUUGGCUAGACUGCC	0.04
GGCCGAGCUCAACACGGCGUGGCGAACUGGCUGUGGCUAGACUGCC	0.04
GGCCGAGCUCAACACGGCGUGGCAAAGUGUCUGUGGCUAGACUGCA	0.04

Variant	self-cleavage
GGCCGAGCUCAACACUGCGUGGCAAAGUGGCUGUGGCUAUACUGCC	0.13
GGCCGAGCUCAACACAGCGUGGCCAAGUGCCUGUGGCUAGACUGCC	0.24
GGCCGAGCUCAACACAGCGUGGCUAAGUCGCUGUGGCUAGACUGCC	0.1
GGCCGAGCUCAACACAGCGUGGCACAGUGUCUGUGGAUAGAAUGCC	0.02
GGCCGAGCUCAACACAGCGUGGCAGAGUGGCUGUGGCUAGUCUGCC	0.15
GGCCGAGCUCAACACAGCGUGGCAUCGUGGCUGUGGCUAGACUGCC	0.03
GGCCGAGCUCAACACAGCGUGGCAUAGUGGCUAUGGUUAGACUGCC	0.09
GGCCGAGCUCAACACAGCGUGGCAUAGUGGCAGUGGCUAGACUGCC	0.07
GGCCGAGCUCAACACAGCGUGGCAAAGUGGCUGUGGCUGGACUUCG	0.3
GGCCGAGCUCAACACAGCGUGGCAAAGUGGCUGUGGCUUUACUGCC	0.06
GGCCGAGCUCAACACAGCGUGGCAAAGUGGCUGUGGCUAGUCUGCU	0.06
GGCCGAGAUCAACACAGCGUGGCAGAGUGGCUGUGGCUAGACUACC	0.16
GGCCGAGAUCAACACAGCCUGGCAAGGUGGCUGUGGAUAGACUGGC	0.01
GGCCGAGAUCAACACAGCCUGGAAAAGUGGCGGUGGCUAGACUGCC	0.18
GGCCGAGAUCAACACAGCGUAGCAAUGUGGCUGUGCCUAGACUGCC	1
GGCCGAGACCAACACAGCGUGGCUAAGUGGCUGUGGCAAGACUGCC	1.36
GGCCGAGGUCAACACAGCGUGGCACAGUGGCUGUGGCUAGACUGCC	0.05
GGCCGAGGUACACACAGCGUGGCAAAGUGGCUGUAGCUAGACUGAC	0.02
GGCCGAGGUCAACACAGCGUGGCAAAGUGGGCGUGGCUACACUGCC	0.04

Variant	self-cleavage
GGCCGAGGUCAACACAGCGUGGCAAAGUGGCUGUGGAUAGACUGCG	0.13
GGCCGAGGUCAACACACCGUGGCAAAGUGGCUGUUGCUAGACUGCC	0.12
GGCCGAGGUCAACACAGCGUGGCAAAGUGGCUGUGGCUAGACAGCC	0.03
GGCCGAGUUCGACACAGCGUAGGAAAGUGGCUGUGGCUAGACUGCC	0.03
GGCCGAGUUCAACACUUCGUGGCAAAGUGGCUGUGGCUAGACUGCC	0.02
GGCCGAGUUGAACACAGCGUAGCAAAGUUGCUGUGGCUAAACUGCC	0.01
GGCCGAGUUCAAGACAGCUUGGCAAAGUGGCUGUGGAUAGACUGCC	0.03
GGCCGAGUUCAACACAGUGUGGCAAAGUGGCUGUGGCUAGACAGCC	0.07
GGCCGAGUUCAACACAGCGUGGUAAACUGGCCGUGGCUGGACUGCC	0.07
GGCCGAGUUCAACACAGCGUGGCAAAGUGGAUGUGGCUAGACUGCC	0.42
GGCCGAGUUCAACACAGCGUAGCAAAGUGGCUGAGGCUAGAGUGCC	0.23
GGCCGAGUUCAACACAGCGUGGCAAAGUGACUGUGGCUAGACUGCC	0.28
GGCCGAGCUAAACCCAGCGUGGCAAGGUGGUUGUGGCUAGACUGCC	0.01
GGCCGAGCUAAACACAGCGUGGCCAAAUGGCUGUGGCUAGACUGCC	0.02
GGCCGAGCUAAACACAGCGUGGCAACUUGUAUGUGGCUAGACUGCC	0.25
GGCCGAGCUAAAUACAGCGUGCCAAAGUGGCUGUAGCUAGACUGCC	0.02
GGCCGAGCUAAACACAGAGUGGCAAAGAGGCUGUGGCUAGACUGCC	0.01
GGCCGAGCUAAACACAUCGUGGCAAAGUGGCUGUGGCUAGCUUGCU	0.01

Reference: the RNAGym collection of RNA variant scans (doi:10.7554/elife.90254)
